These results are taken from the supplement of paper PMC10723795.

In the test the test system is RPE1. Put plainly: nucleolar normality score relative to DMSO (fraction of DMSO control); RPE1 is a non-cancer human cell line; higher = more normal nucleoli (less nucleolar stress). The settings on record: 24 h.

Counter-ions that a name gives are not always drawn. Some of the results follow.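 How the source made its calls: active = more than 2 SD below the DMSO mean: under 0.85 at 10 µM or 0.885 at 1 µM; inactive = the rest.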 Single values are uncertain, as repeats are few or missing.
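Further: fixed cells immunolabelled for nucleolin and UBF, 40 image fields per well in 384-well plates, per-cell score = nucleolin nucleolar/nucleoplasm intensity ratio divided by the matching UBF ratio.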

Regarding `CC(Nc1nc(N2CCCC2)nc2ccccc12)c1ccccc1` (stereo unspecified) [Importazole], the nucleolar normality score was inactive: 1.03 (1 µM) and inactive: 1.05 (10 µM).
Take `Nc1cccc2c1CN(C1CCC(=O)NC1=O)C2=O` (stereo unspecified) [Lenalidomide (CC-5013)]: the nucleolar normality score (1 µM) was active: 0.864 and the nucleolar normality score (10 µM) is inactive: 1.02.
With `CCCCCCCC(=O)CCc1ccc(O)c(OC)c1` [6-Paradol], the nucleolar normality score (1 µM) was inactive: 1.08 and the nucleolar normality score (10 µM) is inactive: 1.05.
As to Ac-PHSCN-NH2, the nucleolar normality score was inactive: 1.02 (1 µM) and inactive: 1.07 (10 µM).
On to `C[C@@H]1CN(CC(=O)Nc2ccc3c(c2)Cc2cccc(-c4cc(=O)cc(N5CCOCC5)o4)c2S3)C[C@H](C)O1`, for which the nucleolar normality score reads like this: (1 µM) inactive: 1.01; (10 µM) inactive: 0.98.
On to `C[C@]12CC[C@@H]3c4ccc(O)cc4CC[C@H]3[C@@H]1C[C@@H](O)[C@@H]2O` [Estriol], for which the nucleolar normality score by setting is: (1 µM) inactive: 0.967; (10 µM) inactive: 0.853.
In the case of `Cc1nc(N)sc1-c1ccnc(Nc2ccc(N3CCOCC3)cc2)n1`, the nucleolar normality score is, setting by setting: (1 µM) active: 0.881; (10 µM) inactive: 0.864.
The matching figures for `C=CC(=O)N1CCC[C@@H](n2nc(-c3ccc(Oc4ccccc4)cc3)c3c(N)ncnc32)C1`: inactive: 1.05 and inactive: 0.898.
The matching figures for `CC(=O)N1CCN(CCOc2ccc(C3CCN(C4=Nn5c(nnc5C(F)(F)F)CC4)CC3)cc2)CC1`: inactive: 0.997 and inactive: 0.858.
For `CCN(c1cc(-c2ccc(CN3CCOCC3)cc2)cc(C(=O)NCc2c(C)cc(C)[nH]c2=O)c1C)C1CCOCC1` [Tazemetostat (EPZ-6438)], in that order: inactive: 1.01 and inactive: 0.916.
For the molecule `CC(CCC(=O)NCCS(=O)(=O)O)C1CCC2C3C(O)CC4CC(O)CCC4(C)C3CCC12C` (stereo unspecified) [Sodium Tauroursodeoxycholate (TUDC)], the nucleolar normality score is, setting by setting: (1 µM) inactive: 0.922; (10 µM) inactive: 1.01.
For `COC[C@H](NC(=O)c1cnc(C)s1)C(=O)N[C@@H](COC)C(=O)N[C@@H](Cc1ccccc1)C(=O)[C@@]1(C)CO1` [Oprozomib (ONX 0912)], the nucleolar normality score is, setting by setting: (1 µM) active: 0.842; (10 µM) active: 0.839.
The matching figures for `Cc1cc(Nc2nc(N[C@@H](C)c3ncc(F)cn3)ncc2Cl)[nH]n1`: inactive: 0.97 and inactive: 1.01.
`C[C@H]1O[C@@H](O[C@H]2CC[C@@]3(C)[C@@H](CC[C@]4(C)[C@@H]3C=C[C@]35OC[C@@]6(CCC(C)(C)C[C@H]63)[C@H](O)C[C@]54C)[C@]2(C)CO)[C@H](O)[C@@H](O[C@@H]2O[C@H](CO)[C@@H](O)[C@H](O)[C@H]2O)[C@H]1O` [Saikosaponin D]: the nucleolar normality score (1 µM) is inactive: 1.04 and the nucleolar normality score (10 µM) was inactive: 0.975.
Turning to `COc1cc(/C=C/c2ccc(O)c(O)c2)cc(OC)c1` [3'-Hydroxypterostilbene], the nucleolar normality score is, setting by setting: (1 µM) inactive: 1.02; (10 µM) inactive: 1.09.
For `Fc1cc(-c2cccc3ncc(-c4cnn(C5CCNCC5)c4)nc23)cc(F)c1CN1CCOCC1`, the nucleolar normality score by setting is: (1 µM) inactive: 1.02; (10 µM) inactive: 0.983.
The matching figures for `O=C(NCC(=O)N1CCCC1)Nc1ccc2cnccc2c1`: inactive: 1.03 and inactive: 1.06.
In the case of `CN(C)CCSSCCNC(=O)C1CCN(C(=O)CSc2ccc(Cl)cc2)CC1`, the nucleolar normality score is, setting by setting: (1 µM) inactive: 0.997; (10 µM) inactive: 1.02.
For `CC1(C)NC(=O)N(c2ccc([N+](=O)[O-])c(C(F)(F)F)c2)C1=O` [Nilutamide], in that order: inactive: 0.987 and inactive: 0.891.
The matching figures for `Cc1[nH]c(/C=C2\C(=O)Nc3ccc(S(=O)(=O)N(C)c4cccc(Cl)c4)cc32)c(C)c1C(=O)N1CCN(C)CC1`: inactive: 1.06 and inactive: 1.07.
For `CN(C)Cc1ccc(-c2nc3cccc4c3n2CCNC4=O)cc1`, the nucleolar normality score is inactive: 0.945 (1 µM) and inactive: 1.02 (10 µM).
Consider `Cc1nc(NC(=O)N2CCC[C@H]2C(N)=O)sc1-c1ccnc(C(C)(C)C(F)(F)F)c1` [Alpelisib (BYL719)], for which the nucleolar normality score (1 µM) is inactive: 1.04 and the nucleolar normality score (10 µM) was inactive: 0.906.
Consider `Nc1ncnc2c1c(-c1cnc3[nH]ccc3c1)nn2C1CCCC1`, for which the nucleolar normality score was active: 0.868 (1 µM) and active: 0.629 (10 µM).
The matching figures for `CCC(C)SSc1ncc[nH]1` (stereo unspecified): inactive: 1.02 and inactive: 1.09.
For `Cc1coc2c1C(=O)C(=O)c1c-2ccc2c(C)cccc12` [Tanshinone I], in that order: inactive: 1.02 and inactive: 0.897.
The matching figures for `Cc1c(CN2CCC(Nc3ncnc4sc(CC(F)(F)F)cc34)CC2)ccc2c1cc(C#N)n2Cc1cn[nH]c1`: inactive: 0.976 and inactive: 0.958.
As for `COc1cc(Nc2nc3ccccc3nc2NS(=O)(=O)c2ccc(NC(=O)c3ccc(C)c(OC)c3)cc2)cc(OC)c1`, the nucleolar normality score (1 µM) was inactive: 1.02 and the nucleolar normality score (10 µM) was inactive: 1.12.
With `Cc1ccccc1-n1c(Cn2nc(-c3cccc(O)c3)c3c(N)ncnc32)nc2cccc(C)c2c1=O`, the nucleolar normality score was inactive: 1.09 (1 µM) and inactive: 1.1 (10 µM).
On to `CCNC(=O)C#Cc1ccc2c(C(=Nc3ccc(CN(C)C)cc3)c3ccccc3)c(O)[nH]c2c1`, for which the nucleolar normality score was active: 0.774 (1 µM) and active: 0.537 (10 µM).
On to `C=C1C(=O)O[C@@H]2C[C@@]3(C)CCC[C@H](C)C3=C[C@H]12` [Alantolactone], for which the nucleolar normality score is, setting by setting: (1 µM) inactive: 1.11; (10 µM) inactive: 1.07.
For `C[C@@H](CN1CC(=O)NC(=O)C1)N1CC(=O)NC(=O)C1` [Dexrazoxane], the nucleolar normality score by setting is: (1 µM) active: 0.533; (10 µM) inactive: 1.01.
For the molecule `Cn1nccc1Nc1nccc(-c2ccn([C@H](CO)c3ccc(Cl)c(F)c3)c(=O)c2)n1`, the nucleolar normality score reads like this: (1 µM) inactive: 0.98; (10 µM) inactive: 1.
The matching figures for `O=S(=O)(O)CCS` [Mesna]: inactive: 1.02 and inactive: 1.13.
`C=CC(=O)N1CC/C(=C\c2ccc(F)c([N+](=O)[O-])c2)C(=O)/C(=C/c2ccc(F)c([N+](=O)[O-])c2)C1`: the nucleolar normality score was inactive: 1.02 (1 µM) and inactive: 1.07 (10 µM).
For `Cc1cccc(-c2[nH]c(CNc3ccccc3F)nc2-c2ccc3ncnn3c2)n1` [Vactosertib ?(TEW-7197)], in that order: inactive: 0.977 and inactive: 1.03.
The matching figures for `CCCS(=O)(=O)Nc1ccc(F)c(C(=O)c2c[nH]c3ncc(-c4ccc(Cl)cc4)cc23)c1F` [Vemurafenib (PLX4032, RG7204)]: inactive: 1.1 and inactive: 1.08.
The matching figures for `Cc1nnc(C(C)C)n1C1C[C@H]2CC[C@@H](C1)N2CC[C@H](NC(=O)C1CCC(F)(F)CC1)c1ccccc1` (stereo in doubt) [Maraviroc]: inactive: 1.08 and inactive: 1.1.
For the molecule `Cn1c(=O)cc(N2CCC[C@@H](N)C2)n(Cc2ccccc2C#N)c1=O` [Alogliptin], the nucleolar normality score was inactive: 1.05 (1 µM) and inactive: 1.08 (10 µM).
The matching figures for `CC1=C[C@]2(O)O[C@@]3(CC2=C(C)C)[C@@H](C)CC[C@@H]13` [Curcumenol]: inactive: 1.05 and inactive: 0.919.
`COc1ccc(-c2cc(=O)c3c(O)cc(O[C@@H]4O[C@H](CO[C@@H]5O[C@@H](C)[C@H](O)[C@@H](O)[C@H]5O)[C@@H](O)[C@H](O)[C@H]4O)cc3o2)cc1O` [Diosmin]: the nucleolar normality score by setting is: (1 µM) inactive: 1; (10 µM) inactive: 1.08.
On to `COC1=C2C[C@@H](C)C[C@H](OC)[C@H](O)[C@@H](C)/C=C(\C)[C@H](OC(N)=O)[C@@H](OC)/C=C\C=C(/C)C(=O)NC(=CC1=O)C2=O` [Geldanamycin], for which the nucleolar normality score was active: 0.403 (1 µM) and active: 0.367 (10 µM).
For `CCCCNc1ncc2c(-c3ccc(CN4CCN(C)CC4)cc3)cn([C@H]3CC[C@H](O)CC3)c2n1`, in that order: active: 0.882 and active: 0.63.
The matching figures for `CC(=O)NC1C(OC2C(C(=O)O)OC(OC3C4COC(O4)C(NS(=O)(=O)O)C3O)C(O)C2O)OC(CO)C(OC2CC(C(=O)O)C(OC3OC(COS(=O)(=O)O)C(OC4OC(C(=O)O)=CC(O)C4O)C(O)C3NC(C)=O)C(O)C2O)C1C` (stereo unspecified) [Enoxaparin sodium]: inactive: 1.02 and inactive: 1.02.
The matching figures for `CNC(=O)Nc1ccc(-c2nc(N3CC4CCC(C3)O4)c3cnn(C4CCC5(CC4)OCCO5)c3n2)cc1`: active: 0.64 and active: 0.446.
As to `Cn1cc(-c2ccc3nnc(C(F)(F)c4ccc5ncccc5c4)n3n2)cn1`, the nucleolar normality score is inactive: 1.06 (1 µM) and inactive: 1.04 (10 µM).
The matching figures for `CCC(CC)CC1(C(=O)Nc2ccccc2SC(=O)C(C)C)CCCCC1`: inactive: 0.987 and inactive: 0.885.
For `CCCCCCCCc1ccc(CCC(N)(CO)CO)cc1` [Fingolimod (FTY720) HCl], in that order: inactive: 1.03 and inactive: 0.891.
For H-RKDVY-OH [Thymopentin], in that order: inactive: 0.983 and inactive: 0.873.
As to `C[C@]12CC[C@@H]3c4ccc(O)cc4CC[C@H]3[C@@H]1CCC2=O` [Estrone], the nucleolar normality score (1 µM) is inactive: 1 and the nucleolar normality score (10 µM) is inactive: 1.
Regarding `CN1CCC(COc2cnc(-c3cccc(Cn4nc(-c5cccc(C#N)c5)ccc4=O)c3)nc2)CC1`, the nucleolar normality score was inactive: 1.04 (1 µM) and active: 0.589 (10 µM).
Take `CC(C)c1cc(C(=O)N2Cc3ccc(CN4CCN(C)CC4)cc3C2)c(O)cc1O`: the nucleolar normality score is active: 0.403 (1 µM) and active: 0.347 (10 µM).
For `CC1Oc2cc(cnc2N)-c2c(nn(C)c2C#N)CN(C)C(=O)c2ccc(F)cc21` (stereo unspecified), in that order: inactive: 0.97 and inactive: 0.987.
The matching figures for `OC1CCC(Oc2cccc3cnc(Nc4ccc5nc[nH]c5c4)nc23)CC1` (stereo unspecified): inactive: 0.95 and inactive: 1.07.
On to `O=NN(CCCl)C(=O)NC1CCCCC1` [Lomustine], for which the nucleolar normality score runs as follows: (1 µM) inactive: 0.966; (10 µM) inactive: 0.999.
Regarding `C=CC(=O)N1CCN(CCCn2c(=O)c(-c3c(Cl)c(OC)cc(OC)c3Cl)cc3cnc(NC)nc32)CC1`, the nucleolar normality score is, setting by setting: (1 µM) inactive: 1.07; (10 µM) inactive: 1.01.
As to `O=C(O)CCn1c2c(c3ccccc31)C[C@H](NS(=O)(=O)c1ccc(F)cc1)CC2` [Ramatroban], the nucleolar normality score runs as follows: (1 µM) inactive: 1.1; (10 µM) inactive: 1.05.
For `Cc1c[nH]c2nc(Nc3ccc(N4CCN(C)CC4)c(F)c3)nc(-c3cccc(CC#N)c3)c12`, in that order: inactive: 0.926 and inactive: 0.882.
`c1cn2cc(-c3ccc4cn[nH]c4c3)nc(Nc3ccc(N4CCOCC4)cc3)c2n1` [Entospletinib (GS-9973)]: the nucleolar normality score (1 µM) is inactive: 1.03 and the nucleolar normality score (10 µM) was inactive: 1.06.
